These are literature values, as cited in US20150086650A1 (priority 2012, published 2015).

Regarding `CO/C=C(/C(=O)OC)c1ccccc1Oc1cc(Oc2ccccc2C#N)ncn1` [Azoxystrobin], the “skin irritation / sensitization” value is “irritant to skin and may cause sensitization”.
